{"source": "paper PMC11995724", "about": "“Antibiotic target discovery by integrated phenotypic and activity-based profiling of electrophilic fragments” (Cell chemical biology, 2025)", "note": "About 75 (2%) of roughly 3,200 compounds showed an effect of 50% or more. Some of the results follow.", "data": [{"test_system": "T1, S. aureus MSSA476", "T1 construct": "MSSA476", "set-up": "species or system S. aureus MSSA476 (TSB) or V. cholerae SAD30 (LB); 384-well bacterial growth screen at 25 uM, OD600 relative to DMSO control", "settings": "relative growth, OD600, TSB; 25 µM; inhibitor", "units": {"% of control remaining": "%"}, "values": [{"smiles": "C=CC(=O)NCCc1ccnn1C", "note": "[2-O17, N-[2-(1-methyl-1H-pyrazol-5-yl)ethyl]prop-2-enamide]", "% of control remaining": 97.8242}, {"smiles": "CC(Cl)C(=O)NC(C)c1nnnn1C1CC1", "note": "(stereo not shown) [7-N21, 2-chloro-N-[1-(1-cyclopropyl-1H-1,2,3,4-tetrazol-5-yl)ethyl]propanamide]", "% of control remaining": 99.2151}, {"smiles": "Cc1cc(C)c(NC(=O)C(C#N)=Cc2ccccc2C)c(C)c1", "note": "[8-E13, 2-cyano-3-(2-methylphenyl)-N-(2,4,6-trimethylphenyl)prop-2-enamide]", "% of control remaining": 65.0622}, {"smiles": "CCCn1c(C)cc(C=C(C#N)C(=O)N2CCCC2)c1C", "note": "[9-I03, 3-(2,5-dimethyl-1-propyl-1H-pyrrol-3-yl)-2-(pyrrolidine-1-carbonyl)prop-2-enenitrile]", "% of control remaining": 89.2884}, {"smiles": "N#CC(=Cc1cnn(CCCl)c1)C(=O)NC1CCCCC1", "note": "[9-A16, 3-[1-(2-chloroethyl)-1H-pyrazol-4-yl]-2-cyano-N-cyclohexylprop-2-enamide]", "% of control remaining": 79.7004}, {"smiles": "O=C(CCl)NC(=O)c1ccc(OC(F)F)cc1", "note": "[5-J22, N-(2-chloroacetyl)-4-(difluoromethoxy)benzamide]", "% of control remaining": 106.011}, {"smiles": "C=CC(=O)NCCC(=O)Nc1nc2n(n1)CCCC2", "note": "[2-M14, N-[2-({5H,6H,7H,8H-[1,2,4]triazolo[1,5-a]pyridin-2-yl}carbamoyl)ethyl]prop-2-enamide]", "% of control remaining": 114.883}, {"smiles": "C=CC(=O)N1CCCCC1Cn1ccnn1", "note": "(stereo not shown) [2-K07, 1-{2-[(1H-1,2,3-triazol-1-yl)methyl]piperidin-1-yl}prop-2-en-1-one]", "% of control remaining": 79.0252}, {"smiles": "C=CC(=O)NCc1cnc(-c2ccc(C(F)(F)F)cc2)s1", "note": "[1-C13, N-({2-[4-(trifluoromethyl)phenyl]-1,3-thiazol-5-yl}methyl)prop-2-enamide]", "% of control remaining": 87.5604}, {"smiles": "O=C(CCl)Nc1ccnn1Cc1ccccc1Cl", "note": "[6-O08, 2-chloro-N-{1-[(2-chlorophenyl)methyl]-1H-pyrazol-5-yl}acetamide]", "% of control remaining": 103.805}, {"smiles": "COc1cccc(C=C(C#N)C(=O)Nc2ccccc2C(=O)O)c1", "note": "[9-G08, 2-[2-cyano-3-(3-methoxyphenyl)prop-2-enamido]benzoic acid]", "% of control remaining": 64.1199}, {"smiles": "CC(O)=C(C#N)C(=O)Nc1ccc(C(F)(F)F)cc1", "note": "[9-A05, 2-cyano-3-hydroxy-N-[4-(trifluoromethyl)phenyl]but-2-enamide]", "% of control remaining": 71.6105}, {"smiles": "C=CC(=O)N(CC)CC(=O)N1CCCC1c1ccc(F)cc1C", "note": "(stereo not shown) [2-F08, N-ethyl-N-{2-[2-(4-fluoro-2-methylphenyl)pyrrolidin-1-yl]-2-oxoethyl}prop-2-enamide]", "% of control remaining": 97.1279}]}]}
